For 14 molecules, binding signal results are on record in paper PMC12136788.

The list shows a part of the results.

First the molecules themselves.
B1: chr6:52502144:52502313:-|3pUTR|ENSG00000065308|msi1|total|mutant (ssRNA)
RNA: GGGAGUUCUACAGUCCGACGAUCUCAGCCAUUCACAAGCAUUCAAAACCAAACCAAACAGCAGUUCAUAUACCUGCCUGAGACCGGCUGGUCCUCACCUCCAGAGCCAGCCAGCCCCGUCAGGGGCCAAACUUACUACCUUGACAACAGAGGAUUGAGCAUCA
B2: chr13:106490488:106490589:-|3pUTR|ENSG00000125266|msi1|FALSE|unique (ssRNA)
RNA: GGGAGUUCUACAGUCCGACGAUCAGCCAUCAGAAGUUACUUUUAGGAUGGGGGAGAGGGGCGAGAAGGGGAAAAAUGGGAAAUAGUCUGAUUUUAAUGAAAUCAAAUGUAUGUAUCAUCAGUUGGCUACGUUUUGGUUCUAUGCAACAGAGGAUUGAGCAUCA
B3: chr2:227556236:227556337:+|3pUTR|ENSG00000173744|msi1|total|mutant (ssRNA)
RNA: GGGAGUUCUACAGUCCGACGAUCUGUUGAAUGCCUUUUUGCAAUGAUGACUGAGUUGUUAUCACCGUAUUUUAAAACCUGUACCGUGUUUCCGACUUGUUAAAACAUUGCUGUCCCGUGUACAUCCCGCUAAAAGUGUGGUUUCAACAGAGGAUUGAGCAUCA
B4: chr1:202726062:202726163:-|3pUTR|ENSG00000117139|unk|FALSE|unique (ssRNA)
RNA: GGGAGUUCUACAGUCCGACGAUCGAAAUGCACCUGAUUUGCCAUUAUACCCACCAUCAAAAGCAACAUGGCCCUUUGGGUAUUAGUGCAAGAUUAGCCUAAGAAUAGAGUAGAUCUCUACCUGGAAGAGGGUGAAACAUGGCUCAACAGAGGAUUGAGCAUCA
B5: ENSG00000107863:be:win_4151|CDS|ENSG00000107863|bound_else_gene|NA|bound_elsewhere_windowed (ssRNA)
RNA: GGGAGUUCUACAGUCCGACGAUCAUUCAGCUACUAGUGACUCAACAAAAUCUAAGGGUUCUUGGGGAUCUGGAAAGGAUCAGUAUAGCAGGGAACUGCUUGUGUCCUCCAUCUUUGCAGCUGCUAGUCGCAAGAGGAAGAAGCCAACAGAGGAUUGAGCAUCA
B6: chr5:171862525:171862626:-|3pUTR|ENSG00000072803|msi1|FALSE|unique (ssRNA)
RNA: GGGAGUUCUACAGUCCGACGAUCGACAGUGCAUGGAAAGGACGUUGGCAUCCAAUUGGCACUCCUUCUCCCUUAUUCAAUAUUAGGUUUGAUUUGCCCUUCGCCAUUGUUUCCAAAGAUCAAGGAAUGUCAAUAACAUUUUAACAACAGAGGAUUGAGCAUCA
B7: chr5:133074000:133074114:+|CDS|ENSG00000170606|unk|total|mutant (ssRNA)
RNA: GGGAGUUCUACAGUCCGACGAUCUCUUGCAUAUGGAAUCUAUAAGCAGGAUCUUCCUGCCUCCGAAGAGAAACCAAGAAAUGCCGUUUUUGCCGACAUGGGCCACUCUGCUUAUCAAGUUUCUGUAUGUGCAUUUAACCGAGGCAACAGAGGAUUGAGCAUCA
B8: ENSG00000029725:stop:overlap|stop_codon|ENSG00000029725|stop_codon|NA|stop_codon (ssRNA)
RNA: GGGAGUUCUACAGUCCGACGAUCAAAAUGAAAUGAAAAAGGAUCCCAUCCAGGAUACCAUAUUGCAUUUAGUUGUGUCUCCUUAGAUGCCUCUUGGCUGUGACAGUUUCUCAGAUUUUUCUUGUUUUUAAUGACCUUUCUGUCCAACAGAGGAUUGAGCAUCA
B9: chr12:54238554:54238587:-|3pUTR|ENSG00000094916|msi1_unk|FALSE|overlapping (ssRNA)
RNA: GGGAGUUCUACAGUCCGACGAUCGGGAGCACCCAUUUUAAACCUGGAGAGAACCAUGAUGUUUUCUUCUUCAAAUAACAAUCUAGUUUUUUUUCCCCCAGUACUAAAAUUGUAUUGUCUUUCAGACAAUAUAAUUUUUAUUUACAACAGAGGAUUGAGCAUCA
B10: ENSG00000198589:be:win_5401|CDS|ENSG00000198589|bound_else_gene|NA|bound_elsewhere_windowed (ssRNA)
RNA: GGGAGUUCUACAGUCCGACGAUCGAACACGCUUUGGAAAAGGCAGCUCCUCUCCUUCGUGAGAUUUUUGUGGAUUUUGCACCUUUUCUUUCUCGGACACUUUUGGGUAGCCAUGGACAAGAACUGCUUAUAGAAGGAACAAGUCAACAGAGGAUUGAGCAUCA
B11: chr19:36514967:36515079:-|CDS|ENSG00000254004|unk|total|mutant (ssRNA)
RNA: GGGAGUUCUACAGUCCGACGAUCCAUGAAUGCACUGAAUGUGGUAAAGUGUGCUCUCGAGUCUCAUCUCUUACUCUACACCUCCGAAGUCACACAGGAAAGAAGGCAUAUAAAUGUAAUAAAUGUGGAAAAGCCUUCAGCCAGCAACAGAGGAUUGAGCAUCA
B12: chr2:112756978:112757080:-|CDS|ENSG00000169607|unk|total|mutant (ssRNA)
RNA: GGGAGUUCUACAGUCCGACGAUCCUUCUGGGCAAAAGGCUGACUUCAGAAUGUGUUUCUUCUAACCCAUACUCUAAGCCUUCCCGCAAGAGUUUUCAACAGUGUGAAGCUGGAUCGUCCACAACAGGAGAACUGUCAAGAAAACAACAGAGGAUUGAGCAUCA
B13: ENSG00000139921:stop:overlap|stop_codon|ENSG00000139921|stop_codon|NA|stop_codon (ssRNA)
RNA: GGGAGUUCUACAGUCCGACGAUCUUCCACAGAAUGCCAUAAGACAACGCUCUCUGGGUCCAUCAUUGGCCACAGAUAAAUCCUAGUUAAAUUUUAUAGUUAUCUUAAUAUUAUGAUUUUGAUAAAAACAGAAGAUUGAUCAUUCAACAGAGGAUUGAGCAUCA
B14: chr6:149410404:149410522:+|3pUTR|ENSG00000055208|unk|FALSE|bound_elsewhere (ssRNA)
RNA: GGGAGUUCUACAGUCCGACGAUCUUAUAUUUCUAUAUGUAUAGUGUAAUAGCCUUUUGUUAACUAAUUUUCUUUUUUCCUUUUAGUAAUUAAGCACGAUCAUGUCCCUUUUUAAGCCUUACCUGAGAGGAACAAUGCCUUAAACAACAGAGGAUUGAGCAUCA

In the assay the target is MSI1 full-length (mouse, UniProt Q61474 1-362). The assay is described as follows: nsRBNS (natural sequence RNA bind-n-seq); RBNS binding buffer (assumed for nsRBNS): 25 mM Tris pH 7.5, 150 mM KCl, 3 mM MgCl2, 0.01% Triton X-100, 500 ug/ml BSA, 20 U/ml SUPERase-In, 4 C; UNK is unkempt and MSI1 is Musashi-1; names of the RNAs are library labels; protein concentration not given here; high values mean tight binding.
Chain of UniProt Q61474 (Q61474 whole entry): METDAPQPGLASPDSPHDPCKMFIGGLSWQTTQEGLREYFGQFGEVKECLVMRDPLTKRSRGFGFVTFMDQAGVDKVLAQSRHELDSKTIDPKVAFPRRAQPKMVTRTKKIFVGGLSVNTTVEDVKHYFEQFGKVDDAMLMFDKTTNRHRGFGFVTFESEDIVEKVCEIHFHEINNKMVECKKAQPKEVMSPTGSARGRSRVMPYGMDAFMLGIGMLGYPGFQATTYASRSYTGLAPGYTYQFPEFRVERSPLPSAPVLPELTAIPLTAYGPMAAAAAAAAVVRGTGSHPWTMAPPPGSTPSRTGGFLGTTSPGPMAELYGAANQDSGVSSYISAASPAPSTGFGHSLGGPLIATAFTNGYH
With B1, the binding signal turned out to be 0.877 enrichment R.
The figure for B2 is 10 enrichment R; for B3 it is 0.214 enrichment R; for B4 it is 1.06 enrichment R.
As for B5, the figure is 0.389 enrichment R.
As for B6, the figure is 0.699 enrichment R; as for B7, 0.25 enrichment R; as for B8, 0.571 enrichment R.
B9 yielded a binding signal of 2.06 enrichment R.
The figure for B10 is 0.464 enrichment R.
B11 had a binding signal of 0.408 enrichment R.
The figure for B12 is 0.501 enrichment R.
As for B13, the figure is 0.597 enrichment R.
The figure for B14 is 30.1 enrichment R.
